According to the supplement of paper PMC11417369:
The other results are listed elsewhere or left out.

Each sequence was assayed on PfSIP2 AP2 domain 1 (GST-tagged) (assay: gcPBM binding intensity (ln(normalized median fluorescence intensity)); higher = stronger DNA binding).
Outline: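 For binding intensity, the highest Masliner-normalised natural-log median intensity across replicate spots of either probe orientation was taken. Protein bound to the array was stained with Alexa488 anti-GST antibody and scanned at 488 nm. The protein, GST-tagged P. falciparum DNA-binding domains from E. coli at about 25 μg on average, had been applied for 1 h to an Agilent 4 × 180k array of primer-extended double-stranded 36-bp intergenic genomic probes and negative controls.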

Sequence	gcPBM binding intensity (ln)
CCATTTACAAAAAGGAGTACACAAATATATGTTTAA [XGTACX_site649]	6.99
TACTTACAGATAATAACACACAAGAAAAAAATAAAA [CACACA_site4716]	6.94
AAAAAACAGACATACACACACACACGGATATTTATA [CACACA_site7570]	6.96
TACAAATATGGACACACACACATATTTATATTTATA [CACACA_site6420]	7.12
ATATAAATGTATATGACACACATATATATATATATA [CACACA_site889]	9.42
AATATTTATGGGTGCACACAAACATACAGATATATA [CACACA_site5810]	12.1
TATATATATATCAAGTGTACTTGTGTTTGTAATATT [XGTACX_site8854]	8.95
TTAAAATAGATATTAGTGCAAAAAAAAAAAAATAAA	8.25
TTTTGATATAAATATTAGATTAATAAATAAAAAAAT [CACACA_negctrl_site1635]	7.02
ATAATATCATAATATTGTACATATTTTATTTTAAAT [XGTACX_site1115]	6.94
TTTTTTGTTTGAATGGTGCATTTTGTAATTATATTT	10.6
CAACTAACATATATTCAACACACATATACCTTCAAC [CACACA_site8988]	7.08
TAACATATTATATATACATGCATACGTGAACTAATC [TGCATGCA_site888]	7.01
ATTGTATATGTATATGCACACAATATATGTACTTAT [CACACA_site2611]	7.99
GATATATTATTTGAATGTACATATTATATTTATATT [XGTACX_site907]	7.01
GTTAGAATTGTTAGGTGGTCAAAAAGGAGAAAAAAA [XGTACX_site2086]	7.33
TTTTTTTAGTTAATTAAACACACAAAAAAAAAAATA [CACACA_site9301]	6.88
TTTTTAATTAACTTTTTATAAATAAATAAAAATATA [GTGCAC_negctrl_site334]	6.98
TTCACATACAGAAACACACACATATTTATAAATTAA [CACACA_site7699]	7.17

Sequence	gcPBM binding intensity (ln)
AAAAGAAAATTAAATTAACACACATAAATATATATA [CACACA_site8482]	7.27
ATTATTTAATTTTATTAAAAAAAAACAAATTAACAG [GTGCAC_negctrl_site152]	7.29
TTATTTTATTTTGAAGCATGCTTTTTGCTGTGATAA [TGCATGCA_site278]	6.76
AAATAATATTTATACACACACACATATTTATATACA [CACACA_site6403]	7.02
TTATGCGTTTGCAAAAGTACATATCTATTATTTTTA [XGTACX_site7609]	6.93
GGTCTTATTTTTAGTAGTACAAATATAATATACATA [XGTACX_site6483]	7.45
TTTTTTTTTTTTTGTTGTACCCATCATATATACATA [XGTACX_site4342]	7.11
TATAAAAATATTTAATGTACGAATCTGTGATATATC [XGTACX_site7881]	6.88
CTAAACAGAATTATCACACATATAAATATAAACATA [CACACA_site4560]	6.86
ATATATTACATATGTGTGCACGTTCCAAAATTTTTA	9.53
TTTTCATGTTGTAAAGCATGCTTTACTCATAAAAAA [TGCATGCA_site917]	6.86
ATTATTAAAAGAAGAAGTACTTATATATTAATATTA [XGTACX_site5227]	6.94
AAAATACACGCATACACACACACACGCGCACATATA [CACACA_site6448]	7.29
ATGTCTATATATTAAGGTACACATATATGCTATTCA [XGTACX_site6008]	7.03
ATATTAATTTTTATTACACACTCTCAATTTTTATTT [CACACA_site58]	7.08
AAAATATACATAAACACACACAAAACGTTTAAGAAA [CACACA_site1071]	7.1
GTTTAACTGTTTTATACACACAATGTATCCAATAAA [CACACA_site5612]	7
TTTTAGTTAATTCATGCATGTAAAGTTTTATTTATA [TGCATGCA_site252]	6.83
AAAAAAAAAAAAAAAGTACACACTTTTGCGTACATG [CACACA_site3097]	7.5

Sequence	gcPBM binding intensity (ln)
TTTATGCACGCGTGCACACACATATGAAAAAAGGTA [CACACA_site3315]	10.4
TATGTTTAAATATATTGTACGCACGTATGTTTTTAA [XGTACX_site1108]	7.01
AATACCTTTTAATAATGTACAAACAAAAATTAGAGA [XGTACX_site6850]	7.11
TATATATTAAAAATAGTGCAAAATAATATATATATA [GTGCAC_site9716]	8.84
AAGGGGAGAAAAATAAACGAAATATATACATACATA [XGTACX_negctrl_site88]	7.08
ATATATATATATATATGTACATATTCATCTTATTCT [XGTACX_site1537]	9.35
ACAAATAAATATATATGTACATATATTTTTTTATTT [XGTACX_site2989]	7.14
TTTTATTTATATTATACACACAAGGAAAAAAAAAAA [CACACA_site7690]	7.02
GATATGATTACCTTATGGTGTTTTTGATGGATAGTT [CACACA_negctrl_site1504]	6.83
TTTTATTATTTATATACACACTTGCTGAAATGTTAT [CACACA_site5919]	7.15
TATAATAATAATGATAGTACGTATGAGTTCAAAAAA [XGTACX_site608]	6.96
TATATACAAATATGCTGTACAAAAAAAAAAAAAAAA [XGTACX_site4732]	6.94
CGGTATTTTTTAATTTGTACGCATATACAATAATTA [XGTACX_site8603]	7.5
TATTTATATTTATATACACACTATATAACTCAAACA [CACACA_site6611]	7.05
AATTGTTCGATATATGCACACAGTTTTGTTATTTTT [CACACA_site1615]	7.41
CTAGCAAATACATACACACACACACGGATACCTATA [CACACA_site7609]	7.11
TATATAACTTTATTTTTCTTTACTTATTTTATTTTA [GTGCAC_negctrl_site66]	6.96
TTTTTTAAAATATATATAATGAATTTTTTTTTTTTT [CACACA_negctrl_site1577]	7.05
AAAGAAAAAAAAAAAAGTACATAAATATAAAAAGAA [XGTACX_site6753]	7.25
